The source of these data is publication PMC4336329 (PLoS ONE, 2015).

In all, about 310,000 compounds went through this assay and about 2,200 (0.71%) showed an effect of 50% or more. Effects have a minus sign here. Some of the results follow.

Chain of human ether-à-go-go-related gene (hERG) potassium channel (Q12809 whole entry, looked up): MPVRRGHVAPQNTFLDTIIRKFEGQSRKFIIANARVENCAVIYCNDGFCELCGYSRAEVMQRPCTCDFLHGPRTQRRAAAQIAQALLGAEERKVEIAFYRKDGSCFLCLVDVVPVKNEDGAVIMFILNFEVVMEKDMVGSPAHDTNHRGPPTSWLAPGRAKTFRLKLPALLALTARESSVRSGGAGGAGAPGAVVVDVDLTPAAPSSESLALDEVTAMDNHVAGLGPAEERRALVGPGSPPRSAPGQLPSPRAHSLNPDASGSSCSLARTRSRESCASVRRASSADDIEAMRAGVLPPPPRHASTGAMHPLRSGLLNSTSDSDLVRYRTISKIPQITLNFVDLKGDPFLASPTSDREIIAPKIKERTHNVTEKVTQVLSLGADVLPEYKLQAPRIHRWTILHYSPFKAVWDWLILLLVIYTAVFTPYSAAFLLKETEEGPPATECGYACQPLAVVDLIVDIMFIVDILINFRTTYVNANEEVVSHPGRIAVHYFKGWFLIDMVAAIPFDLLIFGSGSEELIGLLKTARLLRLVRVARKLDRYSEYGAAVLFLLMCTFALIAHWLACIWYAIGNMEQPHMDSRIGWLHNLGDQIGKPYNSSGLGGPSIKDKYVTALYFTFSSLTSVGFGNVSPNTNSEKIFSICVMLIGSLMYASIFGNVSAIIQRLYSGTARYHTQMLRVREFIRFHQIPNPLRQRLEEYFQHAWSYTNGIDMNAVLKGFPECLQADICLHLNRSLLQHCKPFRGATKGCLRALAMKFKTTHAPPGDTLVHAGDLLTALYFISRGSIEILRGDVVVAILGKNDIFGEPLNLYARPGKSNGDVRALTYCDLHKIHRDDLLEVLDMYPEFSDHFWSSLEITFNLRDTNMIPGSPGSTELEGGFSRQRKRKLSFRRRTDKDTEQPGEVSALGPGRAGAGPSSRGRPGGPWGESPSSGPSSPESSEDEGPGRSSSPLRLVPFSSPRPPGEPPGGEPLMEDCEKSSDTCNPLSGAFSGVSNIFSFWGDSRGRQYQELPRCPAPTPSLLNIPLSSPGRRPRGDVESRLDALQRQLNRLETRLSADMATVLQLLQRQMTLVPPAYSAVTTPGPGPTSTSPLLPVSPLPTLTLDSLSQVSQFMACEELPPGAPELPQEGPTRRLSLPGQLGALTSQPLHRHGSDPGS

The assay concerns the target human ether-à-go-go-related gene (hERG) potassium channel (human, UniProt Q12809). Kind of assay: primary screen, population patch clamp on CHO cells stably expressing hERG.
Turning to `Cc1ccc(CCNC(=O)CCS(=O)(=O)c2ccc(Br)cc2)cc1`, the “hERG current change (%, negative = inhibition) at 1uM” value is -5.38%.
Take `O=C(c1ccco1)N1CCN(C(=O)c2snc3ccc(Cl)cc23)CC1`: the “hERG current change (%, negative = inhibition) at 1uM” value is -3.3%.
Take `Cc1cc(Br)c(NC(=O)CN2CC=C(c3ccccc3)CC2)c(Br)c1`: the “hERG current change (%, negative = inhibition) at 1uM” value amounted to 14.9%.
Under `CCOc1ccc2nc(SCC(=O)c3ccc(O)cc3O)sc2c1` stands 15.3%; under `CC1(C)NC(=O)N(CCCCOc2ccc3c(c2)CCC3)C1=O`, 0.315%; under `CC1CCc2sc(C(=O)N(C)CC(=O)Nc3cccc(F)c3)cc2C1` (stereo not drawn), 4.78%.
As for `O=C1NCC(COCC2CC=CCC2)O1` (stereo not drawn), the figure is -11.3%; as for `CCC(=O)Nc1ccccc1C(=O)NC1CCCCC1`, 5.02%.
As for `C=CCNC(=O)c1ccncc1`, the figure is 7.06%; as for `O=C(Cn1cc(C(F)(F)F)ccc1=O)Nc1cc(S(=O)(=O)N2CCOCC2)ccc1Cl`, 7.79%.
As for `COc1ccc(-c2csc3ncnc(Nc4ccc(O)cc4)c23)cc1`, the “hERG current change (%, negative = inhibition) at 1uM” value was 13.1%.
As for `O=C(NCCOc1ccccc1F)c1cc(F)c(F)cc1Cl`, the figure is -3.8%; as for `CC(C)NC(=O)c1ccccc1NC(=O)CCc1ccccc1`, 0.447%.
As for `CC(C)CCNC(=O)NC(=O)CSc1ccc(S(=O)(=O)N2CCOCC2)cn1`, the figure is 6.2%.
As for `CCOc1ccc(C(c2nnnn2C(C)(C)C)N2CCN(C(=O)c3ccco3)CC2)cc1` (stereo not drawn), the figure is -41.6%.
As for `O=C(C1CCCC1)N1CCN(S(=O)(=O)c2cccc(Cl)c2Cl)CC1`, the “hERG current change (%, negative = inhibition) at 1uM” value is listed as 9.17%.
For `CCOC(=O)C1=C(C)NC(=O)NC1c1ccc(OC)c(CN2CCOCC2)c1` (stereo not drawn), the “hERG current change (%, negative = inhibition) at 1uM” value worked out at 7.7%.
As for `COc1ccc(NC(=O)C2CCCN2S(=O)(=O)c2ccc3c(c2)CC(C)N3C(C)=O)cc1OC` (stereo not drawn), the figure is 13.6%; as for `CN1CCN(Cc2nc(Cc3ccccc3)no2)CC1c1ccccc1` (stereo not drawn), -4.17%.
Regarding `COCCN(CCOC)c1nc(-c2ccccc2)nc2ccccc12`, the “hERG current change (%, negative = inhibition) at 1uM” value was -15.8%.
Consider `COc1cc2c(cc1OC)CN(C(=O)CCc1c[nH]c3ccccc13)[C@H](C(=O)O)C2`, for which the “hERG current change (%, negative = inhibition) at 1uM” value stood at 15.2%.
Under `COC(=O)CSc1nnc(CNc2ccc(Cl)cc2)n1-c1ccccc1` stands -6.46%; under `CN(C)CCNC(=O)C(=O)Nc1ccc2c(c1)N(S(=O)(=O)c1cccs1)CCC2`, 19%; under `Cc1ccc(NC(=O)O/N=C/c2ccc(Br)cc2)cc1`, 7.78%.
As for `CC1CN(c2nc3c(c(=O)n(Cc4ccc(Cl)c(Cl)c4)c(=O)n3C)n2C)CC(C)O1` (stereo not drawn), the figure is -2.18%.
For `CC(C)C(OC(=O)c1cccs1)C(=O)NCc1ccc2c(c1)OCO2` (stereo not drawn), the “hERG current change (%, negative = inhibition) at 1uM” value amounted to 31%.
As for `Cn1c(Cc2cccs2)nnc1SCC(=O)Nc1ccc(C(N)=O)cc1`, the “hERG current change (%, negative = inhibition) at 1uM” value is 11.1%.
As for `CCCCCC/C(=N/O)c1ccccn1`, the figure is 10.3%; as for `O=C(Nc1nccs1)c1ccc(F)c(S(=O)(=O)N2CCOCC2)c1`, -1.16%; as for `O=C(NCNC(=O)NC1C(=O)NC(=O)N1CO)NC1C(=O)NC(=O)N1CO` (stereo not drawn), 4.63%.
Under `Brc1ccc(N=C/C=C/C=C/Nc2ccc(Br)cc2)cc1.Cl` stands 1.96%; under `CCN(CC)C(=O)C1CCCN(c2ccc([N+](=O)[O-])cc2/C=N/NC(=O)c2ccccc2)C1` (stereo not drawn), 7.25%.
Take `COc1ccc(C(=O)Nc2nc3ccccc3c(=O)[nH]2)cc1`: the “hERG current change (%, negative = inhibition) at 1uM” value is on record as 11.4%.
As for `CCOc1c(Nc2ccccc2O)c(=O)c1=O`, the “hERG current change (%, negative = inhibition) at 1uM” value is 14.5%.
`COc1ccc(NS(=O)(=O)c2ccc3oc4ccccc4c3c2)cn1`: the “hERG current change (%, negative = inhibition) at 1uM” value amounted to 23.4%.
As for `Cc1[nH]c2ccccc2c1/C=N/Nc1nc(Nc2ccccc2)nc(N2CCOCC2)n1`, the “hERG current change (%, negative = inhibition) at 1uM” value is listed as -3.33%.
For `COc1ccccc1OCC(=O)NCC1CCCN(C(=O)c2ccccc2SC)C1` (stereo not drawn), the “hERG current change (%, negative = inhibition) at 1uM” value came out at 5.06%.
As for `CC12CCC3C(CC=C4CC(O)CCC43C)C1C/C(=C\c1cccc(F)c1)C2=O` (stereo not drawn), the “hERG current change (%, negative = inhibition) at 1uM” value is on record as 12.5%.
As to `O=C(NCCNC1CCCCC1)c1ccco1`, the “hERG current change (%, negative = inhibition) at 1uM” value came out at 16.9%.
Under `CCOc1ccc(N(CC(=O)N2CCOCC2)S(=O)(=O)c2ccc(Cl)cc2)cc1` stands 3.85%; under `COc1ccc(N2CCc3c(C)nc4c(OC)cccc4c32)cc1`, -28.3%; under `CCOC(=O)c1ccc(COC(=O)CNC(=O)CNC(=O)c2ccc(OC)cc2)o1`, 5.76%.
Turning to `CCCCN(C(=O)CSc1c(C)c(C)cc(C)c1C)c1c(N)n(CCC)c(=O)[nH]c1=O`, the “hERG current change (%, negative = inhibition) at 1uM” value stood at 23.3%.
Consider `COc1ccc(N=Cc2c(C)[nH][nH]c2=O)cc1`, for which the “hERG current change (%, negative = inhibition) at 1uM” value is 6.4%.
Consider `CC1=C(C(=O)Nc2ccccc2F)C(c2cccs2)C2=C(CCCC2=O)N1` (stereo not drawn), for which the “hERG current change (%, negative = inhibition) at 1uM” value amounted to 7.95%.
As for `COc1ccc(S(=O)(=O)N(C)C)cc1NC(=O)c1ccc2c(c1)OCCO2`, the figure is 2.01%; as for `CCOC(=O)c1sc2nc(C)n(N)c(=O)c2c1C`, 17.5%.
Under `CC(Sc1nnc2c(n1)[nH]c1ccccc12)C(=O)NC1CCCCC1` (stereo not drawn) stands 3.42%.
Under `CN(C(=O)c1ccccc1NC(=O)C(F)(F)F)c1ccccc1` stands 6.4%; under `COC(=O)c1ccccc1C(=O)N1CCOCCOCCOCC1`, 12.5%.
Take `CCN(CC(=O)NCc1ccc(Cl)cc1)C(=O)/C=C/c1ccccc1`: the “hERG current change (%, negative = inhibition) at 1uM” value is listed as -1.79%.
Under `O=C1COc2ccc(C(=O)COC(=O)c3ccccn3)cc2N1` stands 3.27%.
Under `Cc1ccc2cc3cc(C(=O)NCCCN4CCCC4=O)oc3nc2c1` stands 11.6%.
As to `CCOC(=O)c1c[nH]c2c(C(F)(F)F)cccc2c1=O`, the “hERG current change (%, negative = inhibition) at 1uM” value was found to be 12.3%.
Consider `Cc1ccc(NC(=O)c2ccc(S(=O)(=O)N3CCCC3)cc2)nc1`, for which the “hERG current change (%, negative = inhibition) at 1uM” value stood at 19.7%.
Turning to `Cc1noc(NS(=O)(=O)c2ccc(NC(=O)c3oc4ccc(Cl)cc4c3C)cc2)c1C`, the “hERG current change (%, negative = inhibition) at 1uM” value is given as -3.06%.
Take `COc1cc(C(=O)N2CCc3ccccc32)ccc1OCc1c(C)noc1C`: the “hERG current change (%, negative = inhibition) at 1uM” value is 2.24%.
As for `CC1Cc2ccccc2N1C(=O)CNCCCN(C)C.O=C(O)C(=O)O` (stereo not drawn), the “hERG current change (%, negative = inhibition) at 1uM” value is reported as 3.76%.
`CCOC(=O)/C(=N/Nc1ccccc1)c1csc(Nc2ccccc2)n1`: the “hERG current change (%, negative = inhibition) at 1uM” value is 3.49%.
Consider `Cc1c(O)nc(SC2CC(=O)N(c3ccccc3)C2=O)[nH]c1=O` (stereo not drawn), for which the “hERG current change (%, negative = inhibition) at 1uM” value was 8.4%.
On to `Cc1cc(Cl)ccc1Oc1ncnc2onc(C)c12`, for which the “hERG current change (%, negative = inhibition) at 1uM” value is 6.75%.
As for `COc1ccc(/C=C(/NC(=O)c2ccco2)C(=O)Nc2ccc(C(=O)O)cc2)cc1`, the figure is 12.1%.
Under `O=C(Cn1cc2c(n1)CCCCC2)NC1CCN(Cc2ccccc2)CC1` stands -49.5%; under `O=C(O)Cn1cnc2ccccc2c1=O`, 9.17%; under `O=C(c1ccccc1)c1cnc2ccc(Cl)cc2c1N1CCOCC1`, 7.3%.
Under `Cc1cc(CNC(=O)COc2cc(F)ccc2[N+](=O)[O-])c2ccccc2n1` stands 2.93%; under `Cc1nc2nc(COc3ccccc3)[nH]n2c(=O)c1C`, 9.79%; under `Cc1cc(C)c(NC(=O)C(=O)NCc2ccco2)c(C)c1`, 15.6%.
As to `Cn1nnnc1NCc1ccc(Cl)c(Cl)c1`, the “hERG current change (%, negative = inhibition) at 1uM” value was found to be 5.37%.
Turning to `O=C(CCN1CCN(c2ccccc2)CC1)Nc1nccs1`, the “hERG current change (%, negative = inhibition) at 1uM” value turned out to be 12.9%.
As for `C=CC[n+]1c(-c2ccc(C)cc2)csc1NNC(=O)Nc1ccccc1.[Br-]`, the figure is -1.29%.
For the molecule `COc1ccc(C(=O)NNC(=O)CSc2nc(C(C)C)nc3ccccc23)cc1`, the “hERG current change (%, negative = inhibition) at 1uM” value turned out to be 8.61%.
As for `CCOC(=O)c1ccc(NC(=O)Cc2coc3cc4c(cc23)CCC4)cc1`, the figure is 8.71%; as for `COc1ccc(CNC(=O)CN2CCN(c3ccc(F)cc3)CC2)cc1`, -2.16%.
For the molecule `O=C(Nc1ccc(Cl)c(Cl)c1)N(Cc1cccnc1)Cc1ccco1`, the “hERG current change (%, negative = inhibition) at 1uM” value stood at 2.54%.
As for `CCn1c(=O)c2cc(C(=O)N3CCN(C)CC3)sc2c2ccccc21`, the figure is 12%; as for `COC(=O)c1ccc(C(=O)OC)c(NC(=S)N2CCC(C)CC2)c1`, 6.75%.
As for `CCCNC(=O)C1CCC(CNS(=O)(=O)c2ccc3c(c2)CC(C)N3C(C)=O)CC1` (stereo not drawn), the figure is 18.8%; as for `Cc1cccc(NC(=O)CCCCCN2C(=O)[C@@H]3Cc4ccccc4CN3C2=O)c1`, 9.09%; as for `CCn1nc(C)c(NS(=O)(=O)c2ccc(C)cc2)c1C`, 8.84%.
`O=C(Cc1ccc(F)cc1)Nc1c(C(=O)N2CCN(c3ncccn3)CC2)oc2ccccc12`: the “hERG current change (%, negative = inhibition) at 1uM” value is reported as -8.61%.
Under `COC(=O)c1ccc(SC)cn1` stands 12.3%; under `Clc1ccc2c(NCc3ccccn3)ncnc2c1`, 5.65%; under `C1COC(NC(C2CC2)C2CC2)=N1.O=C(O)/C=C/C(=O)O`, 16.7%.
As for `Clc1ccc(N/N=C/c2cccnc2)cc1`, the figure is 4.53%; as for `COc1ccc(C(=O)O)cc1S(=O)(=O)Nc1ccc(C)cc1`, 13.2%.
On to `COC1=CC(=Cc2c(N)n3nc(CC(=O)N4CCCCC4)sc3nc2=O)C=C(OC)C1=O`, for which the “hERG current change (%, negative = inhibition) at 1uM” value came out at 10.6%.
`COc1ccc(C(CNC(=O)Cc2ccc(-c3ccccc3)cc2)N(C)C)cc1` (stereo not drawn): the “hERG current change (%, negative = inhibition) at 1uM” value was found to be 10.2%.
Turning to `Cc1ccc(-n2c(=O)c3sccc3n(CC(=O)NC3CCCC3)c2=O)cc1`, the “hERG current change (%, negative = inhibition) at 1uM” value amounted to 3.5%.
On to `CCc1ccccc1NC(=O)CSc1nc(-c2ccccc2)nn1C(=O)c1cccc([N+](=O)[O-])c1`, for which the “hERG current change (%, negative = inhibition) at 1uM” value came to 9.27%.
